# Data as given in PubChem BioAssay AID1347073 (National Center for Advancing Translational Sciences (NCATS), 2019).
# In all, about 45,000 compounds went through this assay and about 200 (0.44%) were called active. About 7% were inconclusive and are not listed. Calls come from the whole dose curve; as a rule, active = well fitted activation curve with a large enough effect; inconclusive = small, poorly fitted or top-dose-only effect; inactive = no such curve, though single readings can be large or run the other way. Some of the results follow.
# Test: qHTS of TDP-43 Inhibitors: NCGC Sytravon Library Screen; note: 0% is about no effect; nearly all actives have a fitted effect of over 55% in size
# Conditions: yeast TDP-43 toxicity rescue, BacTiter-Glo growth, 24 h; series mostly up to 46.1 µM; growth rescue (activation): at the top concentration
# How it was run: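 TDP-43-expressing yeast, pregrown in raffinose, seeded at OD600 0.02 in galactose medium with compound for 24 hr at 30 deg C. Growth read by BacTiter-Glo luminescence, so rescue of toxicity appears as activation.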
row,Compound,growth rescue (activation)
1,Nc1nc(CSc2nc3ccccc3[nH]2)nc(N2CCOCC2)n1,inactive: 4.01%
2,Cc1[nH]c2ccccc2c1/C=N/NC(=S)NCc1ccccc1,inactive: 24.2%
3,CCC(Sc1ccc2nnc(CCNS(=O)(=O)c3ccc(OC)cc3)n2n1)C(=O)OC (stereo not drawn),inactive: 4.02%
4,COc1ccc(CNC(=O)CCCSc2ccccc2)cc1,inactive: 30.2%
5,Cc1nc2ccc(S(=O)(=O)NCC(=O)Nc3ccc(C)c(Cl)c3)cc2s1,inactive: 23.2%
6,CN(C)CCCO/N=C(\c1ccccc1)c1ccncc1,inactive: -1.2%
7,CN(C)c1cccc(C(=O)OCC(=O)Nc2nccs2)c1,inactive: 23.8%
8,CCc1nc2ccc(C(=O)NCCOc3ccc(OC)cc3)cn2c1N(CC)Cc1cccc(Br)c1,inactive: 2.67%
9,CCc1nnc(SCC(=O)Nc2ccc(N3CCN(S(C)(=O)=O)CC3)cc2)o1,inactive: -7.85%
10,O=C(NCCc1cccc(F)c1)C1CCCN(c2nc3ccccc3s2)C1 (stereo not drawn),inactive: -6.93%
11,COc1ccc(/C=N/N(C)c2cc(=O)n(C)c(=O)[nH]2)cc1OC,inactive: -4.45%
12,O=C(N/N=C/c1sc(=O)[nH]c1-[n+]1ccccc1)c1ccccc1[O-],inactive: 9.2%
13,COc1cc2c(cc1OC)CN(C(=O)c1ccc(OC)c(S(=O)(=O)N3CCCC3)c1)CC2,inactive: -35.2%
14,O=C(CNC(=O)C1CCCCC1)NNC(=O)c1ccccc1Br,inactive: -6.49%
15,CCOC(=O)C1CCN(C(=O)c2cc3cc(F)ccc3[nH]2)CC1,inactive: 17.9%
16,Cc1ccc(SCCC(=O)N/N=C/c2ccccc2O)cc1,inactive: 20.6%
17,COc1cccc(/C=C2\C=C(c3ccc(C)cc3)OC2=O)c1OC(C)=O,inactive: -29.2%
18,CCOC(=O)N1CCN(Cc2cn[nH]c2-c2ccc(-c3ccccc3)cc2)CC1,inactive: -0.71%
19,O=C(NCC1CCCO1)C1CC(=O)N(c2ccccc2)C1 (stereo not drawn),inactive: -1.62%
20,COC(=O)c1c(C)[nH]c(C(=O)COC(=O)Cn2cc(C(F)(F)F)ccc2=O)c1C,inactive: 7.46%
21,O=c1[nH]c(O)c(N=Nc2ccc(Cl)c(S(=O)(=O)Nc3ccccc3Cl)c2)c(=O)[nH]1,inactive: 18.5%
22,COCCCNC(=S)N1CCN(S(C)(=O)=O)CC1,inactive: -17.5%

row,Compound,growth rescue (activation)
1,COc1cccc(NC(=S)N(Cc2ccco2)C(C)c2ccco2)c1 (stereo not drawn),inactive: 7.25%
2,CC(C)(C)NC(=O)COC(=O)c1ccc(NC(=O)CC#N)cc1,inactive: -9.52%
3,Cn1c(CN2CCN(S(C)(=O)=O)CC2)nc2cc([N+](=O)[O-])ccc21,inactive: -17.8%
4,CCCCOc1ccc(C(C)NC(=O)CCS(=O)(=O)Cc2ccc(Cl)cc2)cc1 (stereo not drawn),inactive: -1.88%
5,CC1(C(=O)O)CC(C)(C(=O)O)CC(C)(C(=O)O)C1 (stereo not drawn),inactive: 11.8%
6,COc1ccc(OCC(=O)N2CCN(S(=O)(=O)c3ccccc3[N+](=O)[O-])CC2)cc1,inactive: 4.69%
7,O=C(c1ccc(-n2cncn2)c2ccoc12)N1CCOCC1,inactive: 1.22%
8,Cc1ccc2c(c1)N(CC(=O)NCCCN1CCCC1)C(=O)CO2,inactive: 4.81%
9,COCCNC(=O)c1cc2c(s1)-c1ccc(Cl)cc1SC2,inactive: 31.1%
10,COc1cccc(C(=O)Nc2ccc(C(=O)c3ccncc3)cc2)c1,inactive: 6.2%
11,Oc1c(Cl)cc(Cl)c2c1NCCC2,inactive: 1.98%
12,CCNC(=O)C1(C)CCN(C(=O)c2ccc(C(F)(F)F)cc2)C1 (stereo not drawn),inactive: 2.84%
13,CCc1ccccc1NC(=O)CSc1nc2[nH]c(=O)cc(O)c2s1,inactive: -7.99%
14,COc1cccc(-n2nnnc2SCC(=O)Nc2ccc(NC(C)=O)cc2)c1,inactive: -9.32%
15,CC(C(=O)N(C)Cc1cccc(F)c1)N1CCN(S(=O)(=O)c2ccc3c(c2)OCCCO3)CC1 (stereo not drawn),inactive: 18.6%
16,CC(=O)Nc1ccc(NC(=O)CN(c2cccc(C(C)=O)c2)S(C)(=O)=O)cc1,inactive: -2.76%
17,C/C(=N\OCC(=O)NC12CC3CC(CC(C3)C1)C2)c1cc2ccccc2o1,inactive: 35.5%
18,O=C(CSc1nc2c(c(=O)[nH]1)CCC2)Nc1ccc(F)cc1,inactive: 14%
19,CC(=O)N1CCN(CC(=O)Nc2ccccc2Sc2ccccc2)CC1,inactive: -22.4%
20,O=[N+]([O-])c1ccc2nc(NS(=O)(=O)c3ccc(Cl)cc3)sc2c1,inactive: -1.79%
21,CCCN(Cc1nnc(-c2ccccc2Cl)o1)C(=O)c1cc([N+](=O)[O-])cc([N+](=O)[O-])c1,inactive: -4.79%
22,Cc1ccc(C(=O)OCC(=O)NCc2ccc3c(c2)OCO3)o1,inactive: 3.94%

row,Compound,growth rescue (activation)
1,COCCNC(=S)N/N=C(\C)c1cccc(C(F)(F)F)c1,inactive: -5.57%
2,O=C(/C(Br)=C/Nc1cc(Cl)ccc1Cl)C(F)(F)F,inactive: 8.62%
3,CC(=O)Nc1ccc(NC(=O)C(C)OC(=O)C2CCN(S(=O)(=O)c3cccs3)CC2)cc1 (stereo not drawn),inactive: 38%
4,O=C(c1ccco1)N1CCC(c2nc3c(nnn3Cc3ccccc3Cl)c(=O)[nH]2)CC1,inactive: 16.3%
5,CCc1nc2c(OCc3cc(Cl)cc(Cl)c3)cccn2c1N(C)C(=O)CC(C)C,inactive: -25.2%
6,CCCCS(=O)(=O)NC1=NCN(CCOC(=O)c2ccccc2)CN1,inactive: 15%
7,COCCSc1nnc(NC(=O)C2CC(=O)N(C3CCCC3)C2)s1 (stereo not drawn),inactive: 11.4%
8,CCN(Cc1ccncc1)Cc1nc(-c2ccc(C(=O)OC)cc2)no1,inactive: 22.6%
9,CCn1nc(C)c(CN2CCN(Cc3ccc(OC)c(C)c3C)C(CCO)C2)c1C (stereo not drawn),inactive: 8.22%
10,CCc1nc2c(OCCOC)cccn2c1N(C)C(=O)Nc1ccccc1OC,inactive: 19.7%
11,COCCOC(=O)c1c(C)oc2ccc(NS(=O)(=O)c3cccs3)cc12,inactive: 19.3%
12,CC(C)NC(=S)N/N=C/c1ccc2c(c1)OCCO2,inactive: 11.4%
13,Cc1nc(SCc2ccccc2)c2oc3ccccc3c2n1,inactive: -2.31%
14,Cc1cccc(NC(=S)N2CCN(c3ccccc3)CC2)c1,inactive: -10.1%
15,CC1=NN2C(=N)/C(=C\c3cc(C)n(Cc4ccccc4)c3C)C(=O)N=C2S1,inactive: -4.23%
16,Cc1ccc(C)c(NC(=O)N2CCc3cc(S(=O)(=O)N4CCC(C)CC4)ccc32)c1,inactive: -3.64%
17,COc1cc(/C=N/NC(=O)CCC(=O)NC2CCCCC2)ccc1C,inactive: 9.3%
18,Cc1ccsc1CN(C(=O)c1ccc(Br)cc1)C1CCS(=O)(=O)C1 (stereo not drawn),inactive: 13.9%
19,O=C(/C=C/c1cccs1)N1CCOCC1,inactive: -10.2%
20,O=C(Nc1cccc(-c2nc3ccccc3[nH]2)c1)c1ccccc1F,inactive: -8.64%
21,CC(C)(C)c1ccc(C(=O)NCC(=O)N2CCNC(=O)C2)cc1,inactive: -15.8%
22,O=c1cc(Cl)c2ccccc2n1-c1ccccc1,inactive: 17.3%

row,Compound,growth rescue (activation)
1,COCC(C)NC(=O)c1cccc([N+](=O)[O-])c1 (stereo not drawn),inactive: 6.28%
2,N#Cc1c2n(c(=S)n(-c3ccc(F)cc3)c1=O)CCCCC2,inactive: -11.5%
3,O=C1NC2=C(C(=O)CCC2)C(c2ccc(OC(F)F)cc2)N1 (stereo not drawn),inactive: -24%
4,CCC(=O)OCC(=O)Nc1ccc([N+](=O)[O-])cc1OC,inactive: 9.59%
5,CC(=O)Nc1cc(-c2ccc(C(=O)N3CCOCC3)cc2)cn2c(-c3ccc(C(C)=O)cc3)cnc12,inactive: 4.63%
6,CCOC(=O)C1(CC2CC2)CCN(Cc2cnc(-c3ccc(OC)cc3)nc2)CC1,inactive: 8.72%
7,NNC(=O)CCC(=O)Nc1ccccc1,inactive: -7.87%
8,COc1cccc(/C=N/NC(=O)C[n+]2ccccc2)c1O,inactive: 9.03%
9,CCCN(CCC)CCN1C(=O)C2C(C(=O)Nc3cccc(SC)c3)C3C=CC2(O3)C1C(=O)NC1CCCCC1 (stereo not drawn),inactive: 7.21%
10,Brc1ccc(-c2cnco2)cc1,inactive: 1%
11,COc1ccc(CCN2CN(S(=O)(=O)c3ccc(C)cc3)c3nc4ccccc4nc32)cc1OC,inactive: 14.4%
12,Cn1cccc1CC(=O)N/N=C/C=C/c1ccccc1,inactive: 13.7%
13,Cc1ccccc1NS(=O)(=O)c1ccc(OCC(=O)NCC2CCCO2)cc1 (stereo not drawn),inactive: -18.6%
14,CCCS(=O)(=O)N1CCC(C(=O)NCCc2ccc(C)cc2)CC1,inactive: 30.5%
15,CCOc1ccccc1Oc1coc2cc(OCC(=O)O)ccc2c1=O,inactive: 4.83%
16,O=C(O)c1ccc(N/N=C/c2cc3c(cc2[N+](=O)[O-])OCO3)cc1,inactive: -3.47%
17,CCCn1nc(C(=O)Nc2ccc(S(=O)(=O)Nc3nccs3)cc2)c2ccccc2c1=O,inactive: -14.6%
18,CCOc1ccc(S(=O)(=O)N(C(=O)c2ccco2)c2cc3sc(=O)oc3c3ccccc23)cc1,inactive: 17.6%
19,COc1ccc(NC(=O)Nc2nc(C(N)CC(C)C)cs2)cc1 (stereo not drawn),inactive: 7.28%
20,CCSc1nnc([C@@H](NC(=O)OC(C)(C)C)C(C)C)o1,inactive: 3.01%
21,O=C(Nc1cccc(NC(=O)c2cccs2)c1)c1ccc(F)cc1,inactive: 3.77%
22,CCn1cc(CN2N=C(C)CC2c2ccccc2)c(C)n1 (stereo not drawn),inactive: -4.68%

row,Compound,growth rescue (activation)
1,COc1ccc(NC(=S)N(Cc2cccc(Br)c2)CC2CCC(C(=O)O)CC2)cc1 (stereo not drawn),inactive: 16.4%
2,COc1ccc(C(=O)Nc2ccc(Cl)c(S(=O)(=O)N3CCOCC3)c2)cc1,inactive: 27.2%
3,COc1ccc(CCNC(=O)Cn2c(=O)cnc3ccccc32)cc1,inactive: 17.3%
4,CC(=O)c1cccc(NC(=O)CSc2nnnn2C2CCCC2)c1,inactive: -12%
5,C=CCOc1ccc(C(=O)Nc2ccc(OCC)cc2)cc1,inactive: 17.2%
6,O=C1NCCCC1C(=O)N/N=C/c1cc([N+](=O)[O-])ccc1O (stereo not drawn),inactive: 23.5%
7,Cc1cc(NC(=O)COc2ccc(Cl)cc2Cl)n(-c2ccccc2)n1,inactive: 20%
8,CC(=O)c1cccc(-c2ccnc3c2CC(C(=O)Nc2ccc(Cl)cc2)O3)c1 (stereo not drawn),inactive: -3.81%
9,CCOC1=NN(c2ccc(Cl)cc2)C(=O)/C1=C\N(C)C,inactive: 4.04%
10,COc1ccc(/C(C)=N/Nc2nc3ccccc3nc2C)cc1,inactive: -15.2%
11,CC(=O)NC(Cc1ccccc1)C(=O)OCC(=O)c1ccc(F)cc1 (stereo not drawn),inactive: 2.05%
12,CCOc1ccc(S(=O)(=O)Nc2cccc(C)c2)c2cccnc12,inactive: -7.82%
13,O=C(NCCCNC(=O)c1cnccn1)c1ccc(Cl)cc1,inactive: -3.81%
14,CCCc1cc(=O)[nH]c(SCC(=O)Nc2cccc3ccccc23)n1,inactive: -6.19%
15,CCOc1cc(NC(=S)NCCCN2CCOCC2)c(OCC)cc1NC(=O)c1ccco1,inactive: 5.46%
16,COc1ccc(NC(=O)CN2C(=O)NC3(CCCCCC3)C2=O)cc1Cl,inactive: -39.2%
17,CCOC(=O)c1cc(CC)sc1NC(=O)COC(=O)c1cc[n+]([O-])cc1,inactive: 16.6%
18,Cc1ccc(S(=O)(=O)CCC(=O)Nc2sccc2C(N)=O)cc1,inactive: 9.39%
19,CCNC(=S)NNC(=O)c1ccc(S(=O)(=O)NCc2ccco2)cc1,inactive: 0.0624%
20,c1cc(Nc2cccc3nccnc23)c2nccnc2c1,inactive: 23.5%
